Results taken from PMC12136788.
The other results are listed elsewhere or left out.

T1: UNK ZnF1-3 (human, UniProt Q9C0B0 31-174)
T1 sequence: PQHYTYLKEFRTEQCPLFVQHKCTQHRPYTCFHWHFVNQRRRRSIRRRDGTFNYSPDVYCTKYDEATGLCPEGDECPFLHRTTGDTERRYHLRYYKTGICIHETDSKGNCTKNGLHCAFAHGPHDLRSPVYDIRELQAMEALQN

B1: chr16:94690093:94690094:+_ENSMUSG00000040785_ENSMUST00000117648|mus_hu|mus_mus_mus_hu_True|1_108 (ssRNA)
RNA: GGGAGUUCUACAGUCCGACGAUCGGGGACUCCUGUGGGACACACAGCCUCGAUUCCAGGGGGAAAAAGUCUUAGUCGAUACUAAUUAAAAAGUGUUAAUGAUUUUUGAAAAUCAGAUUACAUCUAUAAAAGAUGAAAGCACUUCAACAGAGGAUUGAGCAUCA
B2: chr10:84137372:84137373:+_ENSMUSG00000034453_ENSMUST00000077175|mus_hu|FALSE|FALSE (ssRNA)
RNA: GGGAGUUCUACAGUCCGACGAUCGUAAGAGAGCUCUUCCCCACAUAAUAAAUUCACAUCUUCUACUCCCAAGUUACUGGCUAAUUUAACAAUGGGUCCAUCUUCCAUAUCAGUUGUGAUGUGUGUCAUAAGGGCCAAGUUUUUCAACAGAGGAUUGAGCAUCA
B3: chr11:215046:215047:+_ENSG00000177963_ENST00000526104|hu_hu|FALSE|FALSE (ssRNA)
RNA: GGGAGUUCUACAGUCCGACGAUCUUUAUUUCAAGAUGAUGUUUCUGUGGCUAUGUGUGGUAUGUGGUAUAAAUCUCAAUCUAUGGUCACACGAGGGGCAUUUUCCUUGUUGUAAGUGUAGUCUAAACCAGUAGGAAGGAGGUUCAACAGAGGAUUGAGCAUCA
B4: chr3:170078963:170078964:+_ENSG00000136603_ENST00000458537|hu_hu|FALSE|FALSE (ssRNA)
RNA: GGGAGUUCUACAGUCCGACGAUCGGGUGCAAACAUUCCACAACACUCCAGACAUUGAAUACACGGAGCAUCAGGCUGAACAUAAAACUGGGGUGCAAAUAAACCCUGACAUUUGCCUAGGCAUUCAUGCUCCACUUCAAAGGCCAACAGAGGAUUGAGCAUCA
B5: chr7:141356670:141356671:-_ENSG00000257093_ENST00000536163|hu_hu|FALSE|FALSE (ssRNA)
RNA: GGGAGUUCUACAGUCCGACGAUCUAUAUACAGAUAUGAUAUUCAUAGAUGUUAUUUGUACCACAGAACAAAAUCAAUUCAAGAAACAUUUACUUUUAGCUUCAGGAUUAACCCCAGCUUUCUUUAGGCCUUAAAAUUACCACCCAACAGAGGAUUGAGCAUCA
B6: chr9:103913939:103913940:+_ENSMUSG00000032558_ENSMUST00000035167|mus_hu|FALSE|FALSE (ssRNA)
RNA: GGGAGUUCUACAGUCCGACGAUCAAAAUAAACAGCAUGGAAAAAAUAUCCCAUUGUCUCGCACAUUCUCUUAAGUUUAGGUGAAUAGUCCUUAAGGAAAAGAUCCAUCUCAGGCUGGGUUUCAUCUGUAUAAAUGAGGUAACACAACAGAGGAUUGAGCAUCA
B7: chr14:89307221:89307222:+_ENSG00000165533_ENST00000346301|hu_mus|hu_hu_hu_mus_False|18_28 (ssRNA)
RNA: GGGAGUUCUACAGUCCGACGAUCUCCUGUUUGGUUAGUGCCAGGGAGCUUCAAAGAUGUGCCAGGGCGUGGGACCUGAGCAAUAGCAUUUUCAUCCAGGAUCAUUUCUGCAAUUCCUUCCUGAUCUACAUCAAUUUCAUCUAUCAACAGAGGAUUGAGCAUCA
B8: 38108049_38108169_4134_3pUTR_ENSMUSG00000063455_ENSMUST00000169256|mouse|control|control (ssRNA)
RNA: GGGAGUUCUACAGUCCGACGAUCCCCUCUGAGCCGUAUGUUCUUGGAAGGGAGCUUUGACUUGGGGCUCGGCACAUCUCCGUUUUCUGAGGGUGUGGUGUGGUCCUUCACAGGGCCUGGCAGUGGCGCUGGCUCAUGAAUAAUCAACAGAGGAUUGAGCAUCA
B9: chr13:120183613:120183614:-_ENSMUSG00000025453_ENSMUST00000099149|mus_hu|motif|central (ssRNA)
RNA: GGGAGUUCUACAGUCCGACGAUCGUAAAUAAAACUAAUCAGCGUUCCUGAUGUCUUUAAAAGGUCAGCUUCAUGAACACCGGAUGUUGGAUUAACCAUAGGGGCUCGCACUUUGACCACCAAAUCAGAAGCCAGCACUUCCUUCAACAGAGGAUUGAGCAUCA
B10: chr4:175180916:175180917:-_ENSG00000164117_ENST00000503293|hu_hu|FALSE|FALSE (ssRNA)
RNA: GGGAGUUCUACAGUCCGACGAUCAUUAAAGGUGAGGCUGCCUUCAUCCAGCUGCAUAUACAAUUUUCUAAAAGAAAAUCCUAAAGGUGGGUUCUUAUUGUAUAUGGAACAGUGACCCCAAGUGGAUUUGCACAACCCUUGCCACAACAGAGGAUUGAGCAUCA
B11: chr6:40197388:40197389:+_ENSMUSG00000057716_ENSMUST00000061740|mus_mus|mus_mus_mus_hu_False|68_88 (ssRNA)
RNA: GGGAGUUCUACAGUCCGACGAUCGAGACACUGGGGUGGAUUUAUUCUCAGUUUGGGUGGGUGCUAGUAAGAUAGAUUGUUAUUUUGGGAUUCAUGGCCUUGAAUAUCAAGAGGGAAAGGAAGAGGAUGGAAAGAGUCAAGAGUCAACAGAGGAUUGAGCAUCA
B12: chr1:217782781:217782782:-_ENSG00000092978_ENST00000366934|hu_hu|FALSE|FALSE (ssRNA)
RNA: GGGAGUUCUACAGUCCGACGAUCUUUUGAUGUGUUUCAGGUAUCAGACAAAGCAGAUAAUUUAAAAGGUAAAUGAUUCUACUAGUGCAGACUAGUUAUCACUGUGGCUAAUUUAAAACGAGGAUGAUUUUUGCAGUACAAUGACAACAGAGGAUUGAGCAUCA
B13: chr8:72542918:72542919:-_ENSMUSG00000031858_ENSMUST00000050561|mus_mus|motif|central (ssRNA)
RNA: GGGAGUUCUACAGUCCGACGAUCAGCUAUCAAGCCAAGAGGAGCUGAGCUGGUCCCAUAACUGUCCUCCAUGGGAAAGCGGAAUAGCUGCCAGGAAGGAACCCUCUCAUUCAGGUCCAAUGGGACUUCUGCCUGAUGCUUAGGCAACAGAGGAUUGAGCAUCA
B14: 109252302_109260844_210_CDS_ENSG00000104408_ENST00000220849|human|control|control (ssRNA)
RNA: GGGAGUUCUACAGUCCGACGAUCAGCAUGAGGAAUAUCAUCAGAAUAAAGGUUUUUGUAUACAUCCAUAGCAAAGUCUACCAUGUUGGUAUCACUAAGAAGGUCCAAUUUACCUUGUAAUAAUUCCUUUUCAUUAUAUAUCUCCAACAGAGGAUUGAGCAUCA
B15: chr11:134021440:134021441:+_ENSG00000166086_ENST00000529443|hu_hu|FALSE|FALSE (ssRNA)
RNA: GGGAGUUCUACAGUCCGACGAUCAUUCAUAUCUUAAAAUACACGAGUAUUCCUUUUCCGUCUAGUCUCAGUUAUAGGCAGCUACUUCCCAGACUCUACUUUCACUUCUCUCUACUUUUUCAGACCUGGUUCCCAUGGCACUAGCAACAGAGGAUUGAGCAUCA
B16: chr2:152838176:152838177:-_ENSMUSG00000027472_ENSMUST00000028972|mus_mus|FALSE|FALSE (ssRNA)
RNA: GGGAGUUCUACAGUCCGACGAUCCUGGAUCAUUUCCUUCGUCUUAGGGUGAGGCAUUUUGAUGAACAUGUUCCCAAAGCAAACCAUCACAUCUUCAGAGACACUCAGGUCCUUCUGUAGGGCCCUCAGGCCCUCUCGGUUCUGCAACAGAGGAUUGAGCAUCA
B17: 124030095_124033324_562_ncRNA_ENSMUSG00000049550_ENSMUST00000125340|mouse|control|control (ssRNA)
RNA: GGGAGUUCUACAGUCCGACGAUCCUUUGAAGAUCCACUAUUACCGAGUUGAGGAAAUCAAUCUGACUCUCCUGGGCUCUCUCAUCCUCUUCCGCCUGAGCAUCAGUGUUACCUGAGGAGCUGCUGAGCUGCCUCUUGUUCUCCCAACAGAGGAUUGAGCAUCA
B18: chr2:48026839:48026840:+_ENSG00000116062_ENST00000540021|hu_hu|hu_hu_hu_mus_False|68_78 (ssRNA)
RNA: GGGAGUUCUACAGUCCGACGAUCAUAGUGAGCCACUAGCGUCCUAAAUCUGGAACAAUGGCGAUCAUCUGAAAACUGGCCGAUGAAAAACUUGCCCAGUGAAGUGUCCACAAAGCAAACACCAUACACACGAGUGUGACCAGACAACAGAGGAUUGAGCAUCA
B19: chr2:198351390:198351391:-_ENSG00000144381_ENST00000345042|hu_hu|hu_hu_hu_mus_False|48_88 (ssRNA)
RNA: GGGAGUUCUACAGUCCGACGAUCUCAUUCCCACCCUCCACAGAAAGGCUGCUUAACAACUCUCAUGUGGUGACACAGCGCUACAGUCCUGAUUUUAACAGAACAGUAGAGAUGCCUCAGUGAUUUAAGUUGAAAGCAGGACACCAACAGAGGAUUGAGCAUCA
B20: 115336417_115336537_413_CDS_ENSG00000165185_ENST00000337530|human|control|control (ssRNA)
RNA: GGGAGUUCUACAGUCCGACGAUCUGGCCAGUGAUAAGCAUGGCCAGCACUACAGCCCCACAUUGCUGUCAGGUUCCCAUGGGAACCUUCAGAAAGCAAGUGUUUCAGGUUUGGAAUGAGGCUGCAAAUAGUCCCAUGGCUAUGCAACAGAGGAUUGAGCAUCA
B21: chr1:229440444:229440445:+_ENSG00000168118_ENST00000366690|hu_hu|FALSE|FALSE (ssRNA)
RNA: GGGAGUUCUACAGUCCGACGAUCAUAUUAACUGGAUUUAGUAGGUUUCCUUAAAAUGAACAGGAAACAAAAGAUGUGAAAAACAGGCAGUGAUGCCAUUAUACUGAAUUCCAGAAAAAGCACAGUACAAUGUGUUUUCUAGCACAACAGAGGAUUGAGCAUCA
B22: chr7:79842110:79842111:+_ENSG00000127955_ENST00000351004|hu_mus|FALSE|FALSE (ssRNA)
RNA: GGGAGUUCUACAGUCCGACGAUCUAUCGUGAGGGGGCUCUUUUUUAUUUUUUCUUCGAAGAGGUCCUUCUUGUUGAGGAAAAGGAUGAUGGACGUGUCUGUAAACCACUUGUUGUUACAGAUGCUAUCGAACAGCUUCAUGCUCAACAGAGGAUUGAGCAUCA

molecular target: T1, UNK ZnF1-3; assay: nsRBNS (natural sequence RNA bind-n-seq); RBNS binding buffer (assumed for nsRBNS): 25 mM Tris pH 7.5, 150 mM KCl, 3 mM MgCl2, 0.01% Triton X-100, 500 ug/ml BSA, 20 U/ml SUPERase-In, 4 C; UNK is unkempt and MSI1 is Musashi-1; names of the RNAs are library labels; protein concentration not given here; high values mean tight binding

Going from B1 to B2, the binding signal falls from 1.17 enrichment R to 0.711 enrichment R.

Compared with B3, B4 is higher in binding signal: 1.21 enrichment R for the first, 1.32 enrichment R for the second.

Going from B5 to B6, the binding signal falls from 1.05 enrichment R to 0.996 enrichment R.

First: B7
Second: B8
The binding signal of the first is lower: 0.866 enrichment R for the first, 1 enrichment R for the second.

Compared with B9, B10 is higher in binding signal: 0.619 enrichment R for the first, 1.46 enrichment R for the second.

Going from B11 to B12, the binding signal falls from 2.73 enrichment R to 0.987 enrichment R.

Going from B13 to B14, the binding signal falls from 1.26 enrichment R to 1.04 enrichment R.

Going from B15 to B16, the binding signal rises from 0.572 enrichment R to 0.888 enrichment R.

Going from B17 to B18, the binding signal rises from 0.856 enrichment R to 1.22 enrichment R.

Going from B19 to B20, the binding signal falls from 0.872 enrichment R to 0.692 enrichment R.

Compared with B21, B22 is lower in binding signal: 0.816 enrichment R for the first, 0.617 enrichment R for the second.
